This passage reports z-score results from PubChem BioAssay AID488969 (Vanderbilt High Throughput Screening Facility, 2010).

Whole data set: some 110,000 compounds, median “z-score” near -0.1, cut for the highest 2% near 2. Some of the results follow.

This assay has as its target Metabotropic glutamate receptor 8 (Rattus norvegicus) (UniProt P70579). In words: rat mGluR8 modulators via GIRK flux, primary screen, cell-based, thallium flux, HTS (AID 488969). The note with it: HEK293 rat mGluR8, GIRK (G protein-gated inwardly rectifying potassium channel) thallium flux, FluoZin2; at 10 µM; stronger effect = higher value; submaximal glutamate (EC20) added with thallium.
Sequence of UniProt P70579 (P70579 whole entry, looked up): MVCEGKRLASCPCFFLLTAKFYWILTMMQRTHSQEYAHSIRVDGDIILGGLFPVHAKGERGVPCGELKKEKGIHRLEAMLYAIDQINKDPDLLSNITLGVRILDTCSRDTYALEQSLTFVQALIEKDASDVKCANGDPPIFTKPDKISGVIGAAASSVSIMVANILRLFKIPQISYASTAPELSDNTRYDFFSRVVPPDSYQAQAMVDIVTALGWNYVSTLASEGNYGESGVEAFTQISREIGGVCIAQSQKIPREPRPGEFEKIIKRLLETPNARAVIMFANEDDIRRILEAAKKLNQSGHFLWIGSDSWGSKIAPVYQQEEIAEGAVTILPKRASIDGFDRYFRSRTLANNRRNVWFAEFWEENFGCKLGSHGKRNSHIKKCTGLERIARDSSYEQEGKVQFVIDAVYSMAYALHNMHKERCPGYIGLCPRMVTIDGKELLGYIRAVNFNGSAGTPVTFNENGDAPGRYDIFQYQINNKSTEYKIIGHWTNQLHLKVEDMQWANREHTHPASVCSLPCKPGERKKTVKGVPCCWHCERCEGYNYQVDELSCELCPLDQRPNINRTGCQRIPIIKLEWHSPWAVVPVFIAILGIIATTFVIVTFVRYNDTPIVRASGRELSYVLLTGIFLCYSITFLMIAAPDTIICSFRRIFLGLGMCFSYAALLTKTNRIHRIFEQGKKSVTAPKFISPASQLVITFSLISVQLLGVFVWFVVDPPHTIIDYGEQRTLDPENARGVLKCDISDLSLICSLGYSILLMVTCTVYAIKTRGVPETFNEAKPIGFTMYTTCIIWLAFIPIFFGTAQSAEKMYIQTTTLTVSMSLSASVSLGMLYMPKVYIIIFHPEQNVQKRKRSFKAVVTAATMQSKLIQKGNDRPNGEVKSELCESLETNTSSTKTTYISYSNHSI
For the compound `CCOC(=O)COc1c(Cl)cc(C2NC(=S)NC(c3ccccc3)=C2C(C)=O)cc1OCC` (centres undefined), the z-score was -0.187.

For the compound `CS(=O)(=O)N1CCN(C(=O)c2ccc(-c3ccccc3)cc2)CC1`, the z-score is -0.241.

In turn, `Cc1ccc(C(=O)CN(C(=O)c2ccc(Cl)c(Cl)c2)N2C(=O)C3CCCCC3C2=O)cc1C` (centres undefined) registered a z-score of -0.207.

Compound `Cc1ccc(NC(=O)CSC2=NCCN2)cc1` had a z-score of 0.214.

`OCCCc1nc2n(n1)C(c1ccccc1)C=C(c1ccc(F)cc1)N2` (centres undefined) gave a z-score of -1.33. The figure for `Cc1csc(SCC(=O)Nc2c(C)n(C)n(-c3ccccc3)c2=O)n1` is -0.0217; for `CCOC(=O)c1[nH]c(C)c(C(=O)NC(C)CC)c1C` (centres undefined) it is -0.559. The figure for `CS(=O)(=O)Nc1cccc(C2=NN(S(C)(=O)=O)C(c3ccc4c(c3)OCO4)C2)c1` (centres undefined) is -0.241. Take `O=C(CN(CC1CCCO1)C(=O)CNS(=O)(=O)c1ccccc1)NCc1ccccc1` (centres undefined): the z-score is -0.25.

`Cc1cc(-c2ccc(Cl)s2)n[nH]1` yielded a z-score of 0.0461.

For the compound `COc1cccc(NC(=O)C2CCCN2C(=O)Nc2cccc(F)c2)c1` (centres undefined), the z-score is 1.45.

`NC(=O)c1ccsc1NC(=O)c1ccc(S(=O)(=O)N2CCCCC2)cc1` returned a z-score of -0.52. `CCC(NC(=O)N(Cc1ccccc1)Cc1ccc2c(c1)OCO2)(C(F)(F)F)C(F)(F)F` returned a z-score of -0.904.

The compound `COc1cc(/C=C/C(=O)OCC(=O)NC2CCS(=O)(=O)C2)ccc1O` (centres undefined) showed a z-score of -0.135. To `COc1ccccc1CC(=O)Nc1cc2oc3ccccc3c2cc1OC` belongs -0.189. The compound `CCOC(=O)c1nnn(-c2nonc2N)c1-c1ccccc1` came in with a z-score of 0.111. The figure for `CC(=O)Nc1ccc(S(=O)(=O)N[C@@H](C)C(=O)OCc2ccc(Cl)cc2)cc1` is -0.102. On to `O=C(Nc1ccc(Cl)cc1)C1=Cc2cc(Cl)ccc2OC1`, for which the z-score was -0.109. Compound `CCCC(c1nnnn1C1CCCC1)N1CCN(c2ccccc2F)CC1` (centres undefined) yielded a z-score of -0.889. As for `Cn1c(-c2ccc(C(C)(C)C)cc2)n[nH]c1=S`, the z-score worked out at 1.92.

Turning to `Cc1nc(SC2C=CS(=O)(=O)C2)n[nH]1` (centres undefined), the z-score was determined as 0.0743. As for `Nc1c(C(=O)NCC2CCCO2)sc2nc3c(c(-c4ccco4)c12)CC/C3=C\c1ccco1` (centres undefined), the z-score is -0.197. `Cn1c(=O)c2c(nc(Cl)n2Cc2ccc(Cl)c(Cl)c2)n(C)c1=O`: the z-score is -0.173. As to `COc1ccc(C)cc1S(=O)(=O)N(CC(=O)Nc1cc([N+](=O)[O-])ccc1C)c1ccc(C)c(C)c1`, the z-score was -0.906.

The compound `Nc1nc(CSc2ncccn2)nc(Nc2ccccc2)n1` registered a z-score of -0.0959.

`Cc1ccc2c(c1)cc(CN(Cc1cccnc1)C(=O)NCc1ccccc1)c1nnnn12` gave a z-score of -0.309. Take `COc1cc2c(cc1NC(=O)COC(=O)[C@@H](NS(=O)(=O)c1ccccc1)C(C)C)oc1ccccc12`: the z-score amounted to 0.22.

On to `CCSc1nc2cc(OC)c(OC)cc2c(=O)n1CC`, for which the z-score was -0.49. With `Cc1nn(-c2ccc3nnc(Br)n3n2)c(C)c1Br`, the z-score was -0.48.

Consider `CCOC(=O)c1[nH]c(C)c(C(=O)NC)c1C`, for which the z-score was 0.651.

`O=C(Cn1cc(C(=O)c2cccs2)c2ccccc21)NC1CCCCC1` gave a z-score of -2.37. With `Cc1ccc2nc(SCC(=O)c3ccc4c(c3)OCO4)[nH]c2c1`, the z-score is -0.84. `COC(=O)c1cc2ccsc2n1Cc1cccc(F)c1` returned a z-score of -0.209. To `CCOC(=O)c1sc(NC(=O)c2ccc(S(=O)(=O)N(C)C)cc2)cc1C` belongs -0.519; to `CC(C)CC(=O)Nc1ccccc1N1CCOCC1`, -0.0407. For the compound `CCCCc1ccc(NC(=O)C2CCCO2)cc1` (centres undefined), the z-score was -0.173. The figure for `Cc1ccc(C)c(NC(=O)CCC(=O)NNC(=O)c2cccs2)c1` is 0.00288; for `O=C(c1ccc(-c2ccccc2)cc1)N1CCCC1` it is 0.357; for `CC(=O)C1=C(C)NC(SCC(=O)c2ccc(F)cc2)=C(C#N)C1c1ccco1` (centres undefined) it is -0.403. In turn, `O=C(/C=C\c1ccc2c(c1)OCO2)NC1(C(=O)Nc2ccc3c(c2)OCO3)CCCCC1` gave a z-score of 0.145. Regarding `CCCC(c1nnnn1CS(=O)(=O)c1ccc(C)cc1)N1CCN(c2ccccc2)CC1` (centres undefined), the z-score is -0.889.

`Clc1ccc(OCc2cnc(Cl)s2)cc1` registered a z-score of -0.388. The figure for `CC(=O)c1coc2ccc(OCCN3CCCCC3)cc12` is -0.792; for `Cc1ccc(OCC(=O)N2CCN(C(=O)CCC3CCCC3)CC2)cc1` it is -0.203. To `CC(C)Oc1ccc(C(=O)N2CCCc3ccccc32)cc1` belongs 0.401; to `CCNC(=S)N/N=C/c1ccc(OCc2ccc(C(=O)OC)cc2)cc1`, -0.107.

`O=C(NCCc1ccccc1)C(=O)c1c(-c2ccccc2)cc2ccccn12` registered a z-score of -0.0581. To `CCOC(=O)C/C(C)=N/NC(=O)COc1ccccc1C` belongs 0.0596; to `COc1ccc(NC(=O)CCC(=O)N(Cc2ccc(OC)c(OC)c2)c2nccs2)cc1`, -0.00666. Compound `CCOC(=O)C[n+]1c(C)ccc2c1CCC2` yielded a z-score of -0.223. On to `COc1ccc(C)cc1NC(=O)CSc1nnc(-c2ccc(C)cc2)o1`, for which the z-score was -0.202. The figure for `O=C(COC(=O)Cc1cccs1)Nc1ccccc1` is -0.45; for `Cc1ccc2cccc(S(=O)(=O)N3CCN(c4cccc(Cl)c4)CC3)c2n1` it is 0.709. The figure for `CN(C)c1ccc(C(CNC(=O)c2ccccc2Br)c2c[nH]c3ccccc23)cc1` (centres undefined) is 0.212; for `CCN1CCN(c2nc(-c3cccnc3)nc3ccccc23)CC1` it is -0.778.

Compound `O=C(O)CCC(=O)Nc1ccc(C(=O)N2CCCCC2)cc1` came in with a z-score of 0.0238. For `O=C(NCc1ccco1)c1sc2ccccc2c1Cl`, the z-score was -0.649. Take `O=C(Nc1ccccc1Cl)c1cccc(NC(=O)C2C3CC4OC(=O)C2C4C3)c1` (centres undefined): the z-score was -0.387. To `CC1CCCCC1NC(=O)CC1Oc2ccccc2NC1=O` (centres undefined) belongs 0.107; to `O=C(NCCc1c[nH]c2ccccc12)C(=O)NCC(c1ccco1)N1CCN(c2ccccc2F)CC1` (centres undefined), 0.534; to `COc1ccc(C(=O)NC(=S)Nc2cccc(Cl)c2N2CCOCC2)cc1[N+](=O)[O-]`, -0.0579. Turning to `CCOc1ccccc1N1Cc2ccccc2C1`, the z-score is 1.51. In turn, `CCc1cc[n+](-c2nc3ccccc3nc2[N-]S(=O)(=O)c2ccc(Br)s2)cc1` gave a z-score of 0.232. Turning to `COc1ccc(CCNC(=O)COC(=O)Cc2ccc(OC)cc2)cc1`, the z-score was 0.0297.

As to `CCc1ccc(-c2nc(CN3CCC(C(=O)NCc4ccco4)CC3)c(C)o2)cc1`, the z-score was 0.133. `CCOC(=O)Cc1nnc(Nc2ccc(C)cc2C)c2ccccc12` registered a z-score of -0.344.

With `CCN(CC)c1ccc(/C=N/NS(=O)(=O)c2ccc(C)c([N+](=O)[O-])c2)cc1`, the z-score was 0.166.

`CCOc1ccc(NC(=O)CCn2c(=O)[nH]c3ccsc3c2=O)cc1` yielded a z-score of -0.46. Compound `CN1CCN(S(=O)(=O)c2ccc(NC(=S)NC(=O)C3CCC3)cc2)CC1` displayed a z-score of -0.133. Compound `O=C(N/N=C/c1ccc(-c2cccc(C(F)(F)F)c2)o1)c1cccc(F)c1` displayed a z-score of 1.36. Compound `COC(=O)c1c(C(=O)OC)c2cc(C)ccn2c1Cl` had a z-score of -0.371.

In turn, `CCOCC(=O)Nc1ccc(S(=O)(=O)Nc2ncccn2)cc1` returned a z-score of -0.108. In the case of `Cc1cc(C)cc(OCCCCCNCCO)c1`, the z-score is -0.911.

`CCOC(=O)Cn1c(=O)oc2cc(S(=O)(=O)Nc3cc(Cl)ccc3OC)ccc21` registered a z-score of -0.0116.

The compound `CSc1nc2sc3c(c2c(=O)[nH]1)CCc1ccccc1-3` came in with a z-score of -0.132.

Take `CCN(CC)C(=O)c1sc(N)c(C#N)c1C`: the z-score came to 1.2. To `CCc1cc(SC#N)cc(C)c1NC(=O)CCl` belongs 0.0322; to `O=C(Cn1c(=O)c2sccc2n(Cc2cccc([N+](=O)[O-])c2)c1=O)NCCc1ccccc1`, -0.191. `CN1CCN(S(=O)(=O)c2ccc(=O)[nH]c2)CC1` registered a z-score of -0.0437. To `CC(C)Oc1ccc(/C(O)=C2/C(=O)C(=O)N(CCN(C)C)C2c2cccs2)cc1` (centres undefined) belongs 0.0182; to `Cc1cc(S(=O)(=O)Nc2cc(C)c(O)c(C)c2)c(C)s1`, -0.139; to `COc1cc(CN(C2CCCCC2C)S(=O)(=O)c2ccc(S(=O)(=O)NC3CC3)cc2)cc(OC)c1OC` (centres undefined), 0.119.

For the compound `Cc1csc(SCC(=O)N2CCN(S(=O)(=O)c3ccccc3)CC2)n1`, the z-score was determined as 0.705. To `CC1(C)NC(=O)N(CC(O)COc2cccc(F)c2)C1=O` (centres undefined) belongs -1.9; to `COc1ccc(-c2noc(CSc3nc(-c4ccccc4)cc(=O)[nH]3)n2)cc1OC`, -0.994. The figure for `Cc1ccc(OCCOCCN(C)C)c(Cl)c1` is 0.611; for `Cc1nc2nc(NCc3cccs3)nn2c(C)c1Cl` it is -0.497; for `CC(=O)Nc1ccc(S(=O)(=O)NC2(C(F)(F)F)C(=O)Nc3c2c(=O)[nH]c(=O)n3C)cc1` (centres undefined) it is 0.00739.

For the compound `N#CC(=C=[N-])C1=C(C#N)C(c2ccccc2F)C([n+]2ccccc2)C(O)(C2CC2)N1` (centres undefined), the z-score turned out to be 0.175. The figure for `O=C(Nc1ccc(C(=O)N2CCCC2)cc1)c1ccccc1F` is 0.00957; for `Cc1ccc(SCc2noc(C(=O)NCC3CCCO3)c2C(=O)O)cc1C` (centres undefined) it is -1.59. To `Cc1nc(NC(=O)CSc2cc(C)c3ccccc3n2)c(Cl)cc1Cl` belongs 0.101; to `CCc1cc[n+](-c2nc([O-])sc2C=O)cc1`, -0.00509; to `Cn1c(=O)c2c(nc(SCCCO)n2Cc2ccccc2Cl)n(C)c1=O`, -1.85. Compound `CC(C)c1ccc(NC(=O)Nc2cc3sccc3n2C)cc1` came in with a z-score of -0.114. To `CC(C)(C)SCCNC(=O)c1cccc([N+](=O)[O-])c1` belongs -0.174; to `Cc1cccc(N/C=C/C(=C(C#N)C#N)N(C)C)c1`, -0.2. The figure for `COc1ccc(Nc2nc(N)nc(CSc3n[nH]c(-c4ccccc4)n3)n2)cc1` is 0.585.

Turning to `CCOC(=O)c1cccc(NC(=O)CSc2nnc(COc3ccc(Cl)cc3)o2)c1`, the z-score was -0.15. Take `COc1cccc(NC(=O)Nc2cccn(Cc3ccccc3)c2=O)c1`: the z-score amounted to 0.12. To `O=C(NCCN1CCOCC1)C1CC(=O)N(c2ccc(F)c(Cl)c2)C1` (centres undefined) belongs -0.136; to `CN(C)CCNC(=O)c1ccccc1`, -0.079. To `O=C(CSc1nc(-c2ccccc2)cc(=O)[nH]1)NCc1ccc2c(c1)OCO2` belongs -0.25; to `CN(C)C(=C(C#N)C#N)N1CCN(c2ccc(Cl)c(Cl)c2)CC1`, -0.151; to `O=C(CS(=O)(=O)c1cn(Cc2cccc(F)c2)c2ccccc12)N1CCOCC1`, 0.16. To `CC(=O)Nc1ccc(SCC(=O)c2cc(C)n(-c3ccccc3)c2C)cc1` belongs 0.162. Take `CCN1CCN(C(=S)c2ccc([N+](=O)[O-])cc2)CC1`: the z-score is -0.204. In turn, `COc1cccc(OCc2nnc(SCC(=O)NCc3ccco3)n2CCc2ccccc2)c1` came in with a z-score of -0.317. With `CCCOc1ccc(C2C(=O)N(C3CCCCCC3)CC(=O)N2Cc2ccco2)cc1OC` (centres undefined), the z-score was -0.437.
